# Assay results taken from publication PMC4336329 (PLoS ONE, 2015).
# Out of some 310,000 compounds screened, about 2,200 (0.71%) showed an effect of 50% or more. Effects have a minus sign here. The list shows a part of the results.
# Biological target: human ether-à-go-go-related gene (hERG) potassium channel (human, UniProt Q12809)
# Assay: primary screen, population patch clamp on CHO cells stably expressing hERG
# Sequence of human ether-à-go-go-related gene (hERG) potassium channel (Q12809 whole entry, looked up): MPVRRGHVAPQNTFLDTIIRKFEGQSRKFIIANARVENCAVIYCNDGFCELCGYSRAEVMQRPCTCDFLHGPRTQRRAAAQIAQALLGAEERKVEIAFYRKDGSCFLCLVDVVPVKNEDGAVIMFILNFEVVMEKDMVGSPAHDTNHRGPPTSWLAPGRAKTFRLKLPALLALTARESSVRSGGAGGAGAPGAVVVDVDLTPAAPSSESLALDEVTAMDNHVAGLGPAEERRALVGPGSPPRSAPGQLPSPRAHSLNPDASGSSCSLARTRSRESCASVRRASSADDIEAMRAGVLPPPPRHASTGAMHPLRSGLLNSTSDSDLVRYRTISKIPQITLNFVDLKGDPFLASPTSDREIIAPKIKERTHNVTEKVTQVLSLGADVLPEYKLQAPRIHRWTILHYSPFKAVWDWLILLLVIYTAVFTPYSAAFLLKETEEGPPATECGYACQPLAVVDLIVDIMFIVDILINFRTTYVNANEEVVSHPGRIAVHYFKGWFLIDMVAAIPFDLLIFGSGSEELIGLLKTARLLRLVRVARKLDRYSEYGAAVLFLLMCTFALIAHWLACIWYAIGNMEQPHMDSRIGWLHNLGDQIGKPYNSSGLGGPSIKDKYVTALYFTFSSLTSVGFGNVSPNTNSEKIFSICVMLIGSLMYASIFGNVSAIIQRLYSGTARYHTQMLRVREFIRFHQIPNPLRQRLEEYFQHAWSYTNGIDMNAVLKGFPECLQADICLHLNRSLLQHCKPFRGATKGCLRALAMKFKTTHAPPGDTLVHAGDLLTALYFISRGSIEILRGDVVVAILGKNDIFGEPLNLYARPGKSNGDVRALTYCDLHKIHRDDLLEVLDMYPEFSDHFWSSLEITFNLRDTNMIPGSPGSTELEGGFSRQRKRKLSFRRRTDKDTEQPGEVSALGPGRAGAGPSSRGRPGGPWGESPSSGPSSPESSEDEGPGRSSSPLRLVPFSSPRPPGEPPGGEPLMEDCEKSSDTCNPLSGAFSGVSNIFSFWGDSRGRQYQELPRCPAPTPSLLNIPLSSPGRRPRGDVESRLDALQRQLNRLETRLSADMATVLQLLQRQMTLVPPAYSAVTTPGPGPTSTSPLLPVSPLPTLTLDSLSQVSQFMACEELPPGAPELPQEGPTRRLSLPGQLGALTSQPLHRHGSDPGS
row,SMILES,"hERG current change (%, negative = inhibition) at 1uM [%]"
1,CN(C)C(C(=O)NC1CCCCC1)c1ccc(Cl)cc1 (stereo not drawn),6.84
2,COc1ccc(CC(=S)N2CCOCC2)cc1OC,21.5
3,N#Cc1ccccc1OCC(=O)NCCNC(=O)COc1ccccc1C#N,5.59
4,COc1cc(Cc2nccc3cc(OC)c(OC)cc23)c(NC(C)=O)cc1OC,22.3
5,CCN(CC)C(=O)c1nn(Cc2ccccc2)c(=O)c2ccccc12,-1.69
6,Cc1cc(NC(=O)C(C)C)ncc1NC(=O)c1ccccn1,-0.974
7,Cn1c(=O)cc(OCCCC(=O)NC2CCCC2)c2ccccc21,5.33
8,Cc1ccc(CNC(=O)C(Cc2ccccc2)NS(=O)(=O)c2cccs2)cc1 (stereo not drawn),9.39
9,CC1CCN(C(=O)Cn2cnc3c(cnn3C(C)(C)C)c2=O)CC1,3.8
10,COC(=O)c1nc(-n2nc(C)cc2C)ccc1Cl,-12.9
11,Cn1nc(N2CCN(S(=O)(=O)c3ccccc3)CC2)c(=O)n(C)c1=O,4.75
12,Cc1ccc(-c2nn(CCC(=O)O)cc2/C=C\C(=O)c2ccc(Br)cc2)cc1,13
13,O=C(CCN1C(=O)c2ccccc2C1=O)Nc1cccc(O)c1,8.04
14,COc1ccc(C(=O)Nc2ccc(C)cc2C(=O)c2ccccc2)c(OC)c1,7.13
15,CCN1CCN(c2nc3sc4c(c3c(=O)n2-c2ccc(OC)cc2)CCCCC4)CC1,-11.1
16,Cc1ccc(C(=O)NCC(=O)N2CCc3ccccc3C2)cc1C,3.9
17,CN1C(=O)NC(c2ccc(O)cc2)C2=C1CN(c1cccc3ccccc13)C2=O (stereo not drawn),-7.61
18,C=CCNC(=O)c1ccc2c(=O)n(Cc3ccccc3OC)c(=S)[nH]c2c1,15.5
19,Cc1ccc(CNC(=O)CC2C(=O)Nc3c2c(=O)n(C)c(=O)n3Cc2ccccc2)cc1 (stereo not drawn),-1.85

row,SMILES,"hERG current change (%, negative = inhibition) at 1uM [%]"
1,CCOC(=O)C1=C(C)N=c2s/c(=C\c3ccc(OCC(=O)O)cc3)c(=O)n2C1c1ccccc1OC (stereo not drawn),13.6
2,O=C(CSc1nnc2n1CCCN2)c1ccccc1,6.1
3,CCOc1ccccc1NC(=O)CSc1nc(=O)n(CCN2CCOCC2)c2c1CCCC2,-2.38
4,COc1ccc(-c2cn(-c3ccc(Cl)cc3)c3[n+]2CCCCC3)cc1.[Br-],1.02
5,COc1ccc(NS(=O)(=O)c2ccc(F)c(Cl)c2)cn1,10.6
6,CCc1c(C2(O)CCCCC2)[nH]c2ccc(C(F)(F)F)cc12,23.6
7,O=C(CN(Cc1cccs1)C(=O)CNS(=O)(=O)c1ccc(Cl)cc1)NCc1ccco1,-5.7
8,CCOC(=O)N1CCN(Cc2nc3ccc([N+](=O)[O-])cc3c(=O)n2-c2cccc(OC)c2)CC1,0.339
9,O=C(CCSc1nnc(-c2ccncc2)o1)Nc1ccccc1Cl,5.85
10,Cc1ccsc1/C=C/c1n[nH]c(=O)c(C#N)c1C,12.9
11,COc1ccc(S(=O)(=O)Nc2cc3c4c(c2)CCN4C(=O)CC3)cc1C,-0.0573
12,COc1ccc(C(=O)NC(C)c2nccs2)cc1OC1CCN(C(C)C)CC1 (stereo not drawn),13.2
13,O=C(CCC1CCCCC1)NNC(=O)c1cnccn1,2.55
14,COc1ccc(-c2cc(CNC(C)=O)on2)cc1,5.73
15,Nc1ccn(-c2ncc(C(F)(F)F)cc2Cl)c(=O)n1,7.65
16,COc1ccc(-n2ncc3c(N(C)C4CCCCC4)ncnc32)cc1,12.8
17,COc1cc(SC)ccc1C(=O)Nc1ccccc1,8.14
18,Cc1nc(-c2coc3cc(OCC(=O)O)ccc3c2=O)cs1,-0.283
19,CC(C)(C)NC(=O)Cc1ccc(Cl)c(Cl)c1,4.16

row,SMILES,"hERG current change (%, negative = inhibition) at 1uM [%]"
1,Nc1nnc(CC(=O)N/N=C/c2cccc([N+](=O)[O-])c2)s1,10.7
2,COCCOC(=O)c1c(NC(=O)CNC2CCCc3ccccc32)sc(C(N)=O)c1C (stereo not drawn),10.5
3,Cc1ccccc1OCCOc1cccc(/C=N/NC(=O)Cc2nnc(N)s2)c1,9.37
4,C=CCNc1nc(NCCN2CCOCC2)nc(OC)n1,-3.49
5,O=C(c1cccc(Cl)c1)N1CCN(C(=O)c2ccco2)CC1,1.69
6,CCc1ccc(NC(=O)CSc2nc3ccccc3nc2N2CCCC2)cc1,17
7,O=C(Nc1ccc(C(=O)N2CCN(c3ccccn3)CC2)cc1)c1ccc(Br)o1,-10.3
8,Cn1c(=O)c(=O)n(C)c2cc(S(=O)(=O)N3CCCC3C(=O)Nc3ccc(F)cc3)ccc21 (stereo not drawn),1.23
9,CCOC(=O)N1CCC(NC(=O)C2CCCN(Cc3nc(-c4cccc(Cl)c4)oc3C)C2)CC1 (stereo not drawn),-50.4
10,Cc1ccccc1NC(=O)CCN1CCN(C)CC1,12.7
11,Cc1cc(OCC(=O)N2CCc3ccccc3C2)c2c(-c3ccccc3)cc(=O)oc2c1,4.28
12,N/C(=N\NC(=O)c1ccccc1Cl)c1cc2ccccc2oc1=O,18.8
13,O=C1CC(NNC(=O)c2ccc(Br)cc2)C(=O)N1 (stereo not drawn),15.2
14,COc1ccc(/C=C(\C#N)c2cc(OC)c(OC)cc2[N+](=O)[O-])cc1,11.9
15,Cc1ccccc1C(=O)c1cccn1CC(=O)NCCC1=CCCCC1,11.5
16,ClC(Cl)c1nnc(-c2ccccc2)c(-c2c[nH]c3ccccc23)n1,11.6
17,O=C(OCc1cnc(Cl)s1)c1cccc(Cl)c1,-5.8
18,CC(C)(OC(=O)c1cccs1)c1cc2ccccc2c(=O)o1,11.7
19,COc1cc(NC(=S)NCc2cccnc2)c(OC)cc1Cl,-4.32
